Assay results reported in PubChem BioAssay AID1963576 (National Center for Advancing Translational Sciences (NCATS), 2024).
Out of some 46,000 compounds screened, about 60 (0.1%) were called active. About 3% were inconclusive and are not listed. Calls follow the shape of the dose curve; as a rule, active = well fitted inhibition curve with a large enough effect; inconclusive = small, poorly fitted or top-dose-only effect; inactive = no such curve, though single readings can be large or run the other way. The list shows a part of the results.

assay: Primary qHTS assay for Inhibitors of ovarian cancer metastasis using an organotypic tumor microenvironment (TME) model.; also: nearly all actives have a fitted effect of over 65% in size;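 as to activity change, negative = inhibition: plate controls were DMSO wells for no effect and tomatine positive control wells for full effect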; details: SKOV3ip1-GFP adhesion/invasion on 3D omental model, fluorescence; series mostly up to 45.8 µM; activity change, negative = inhibition: at the top concentration
How it was run: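 Adhesion/invasion was scored as fixed GFP-labeled SKOV3ip1 cell counts (488/509 nm), normalized to DMSO and tomatine controls. Cancer cells in serum-free medium, with four compound doses (0.36-46 umol/L), sat 2 hr at RT then 16 hr at 37 C on a 48 hr fibroblast/mesothelial/ECM culture.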

Activity change, negative = inhibition, inactive:
CCCOc1cccc(C(=O)Nc2cc(-c3nc4ccccc4[nH]3)ccc2C)c1 -13.3%
CCCc1cnc2c(c1SCc1cccc(C)c1)c(=O)n(C)c(=O)n2C 7.55%
CCOc1ccccc1NC(=O)CSc1nc2ccccc2nc1Cc1ccc(C)cc1 5.36%
Cc1ccc2c(Sc3ccccc3)c(C(=O)NCc3ccccc3F)[nH]c2c1 -11.3%
Cc1nc2c3cccnc3nn2c(C)c1CCC(=O)NCc1ccccc1Cl -9.5%
Cc1ccc(S(=O)Cc2ccc(C(=O)NCc3ccc(OC(C)C)cc3)o2)cc1 (stereo unspecified) -3.01%
CC(=O)c1ccc(NC(=O)c2sc(-n3nc(C)c(CCC(C)C)c3C)nc2C)cc1 -9.37%
CCOC(=O)[C@H](CCc1ccccc1)N[C@H]1CCc2ccccc2N(CC(=O)O)C1=O -19.2%
CCCCC(=O)N1CC(=O)Nc2ccc(F)cc2C1c1ccc(F)cc1 (stereo unspecified) 6.5%
CCOc1cc(Cn2c(-c3ccc(O)c(OCC)c3)nc3ccccc32)ccc1O -1.06%
Cc1cc(C)cc(NC(=O)c2nnn(Cc3cccc(Br)c3)c2N)c1 2.46%
O=C(CC1C(=O)OCCN1Cc1ccccc1)Nc1cccc(Cl)c1 (stereo unspecified) 2.81%
COC1=C(OC)C(=O)C(CCCCCCCCCCO)=C(C)C1=O 0.33%
CC(=O)Nc1ccccc1-c1nc2ccccc2n(C(C)C(=O)Nc2cc(Cl)ccc2C)c1=O (stereo unspecified) -2.87%
CCN(CC)S(=O)(=O)c1nnc(NC(=O)COc2ccc(C)cc2)s1 1.46%
CC(=O)Nc1ccc(NC(=O)CCc2c(C)nc3c(c(C)nn3-c3ccc(C)cc3)c2C)cc1 -10.1%
CCOC(=O)c1sc(N2C(=O)c3oc4cc(C)c(C)cc4c(=O)c3C2c2ccc(C)cc2)nc1C (stereo unspecified) 1.75%
COc1ccc(CN2CCCN(CC(=O)Nc3cc(C)ccc3C)S2(=O)=O)cc1 -0.14%
Cn1c(=O)c2sccc2n2c(CCCC(=O)Nc3ccc(Cl)cc3)nnc12 5.86%
CCC(=O)Nc1ccccc1-c1nc2ccccc2n(Cc2cccc(Br)c2)c1=O -1.51%

outcome, inactive:
CCn1c(CNC(=O)C23CC4CC(CC(C4)C2)C3)nnc1SCC(=O)Nc1ccc(C)cc1
COc1ccc(-n2c(-c3ccccc3F)nc3c(cnn3-c3ccc(C)cc3)c2=O)cc1
Cc1ccc(CCNC(=O)CN2C(=O)COc3ccc(S(=O)(=O)N4CCCC4)cc32)cc1
CCOc1ccc(NC(=O)c2ccc(CN3C(=O)C(C)=C(c4ccc(C)cc4)S3(=O)=O)cc2)cc1
Cc1ccc(C)c(NC(=O)CSc2nnc(CNC(=O)c3ccccc3)n2-c2ccccc2)c1
O=C(Nc1ccccc1Cl)c1ccc(F)c(S(=O)(=O)NCc2ccc(Cl)c(Cl)c2)c1
